Results from the supplement of paper PMC4604168 (melanoma cell lines).
The list shows a part of the results. Many values rest on one well or one pass, so single values are uncertain.

Tests used:
Experiment in all cases: cell count relative to DMSO control; melanoma cells; higher = more viable cells
Conditions in all cases: library dose: standard library concentration; 72 h
G361 = system: G361
IPC-298 = system: IPC-298
IST-MEL1 = system: IST-MEL1
LB2518-MEL = system: LB2518-MEL
LOXIMVI = system: LOXIMVI
MEL-HO = system: MEL-HO
MZ2-MEL = system: MZ2-MEL
MeWo = system: MeWo
RPMI7951 = system: RPMI7951
RVH-421 = system: RVH-421
SkMel28 = system: SkMel28
SkMel2 = system: SkMel2
SkMel30 = system: SkMel30
SkMel5 = system: SkMel5
UACC257 = system: UACC257
UACC62 = system: UACC62
WM115 = system: WM115
WM1716 = system: WM1716
WM1745 = system: WM1745
WM3526 = system: WM3526
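Note: cells treated in 1,536-well plates, then fixed and DAPI-stained, with nuclei counted from automated high-throughput microscope images.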

SMILES	cell count (G361) [%]	cell count (IPC-298) [%]	cell count (IST-MEL1) [%]	cell count (LB2518-MEL) [%]	cell count (LOXIMVI) [%]	cell count (MEL-HO) [%]	cell count (MZ2-MEL) [%]	cell count (MeWo) [%]	cell count (RPMI7951) [%]	cell count (RVH-421) [%]	cell count (SkMel28) [%]	cell count (SkMel2) [%]	cell count (SkMel30) [%]	cell count (SkMel5) [%]	cell count (UACC257) [%]	cell count (UACC62) [%]	cell count (WM115) [%]	cell count (WM1716) [%]	cell count (WM1745) [%]	cell count (WM3526) [%]
COc1cc([C@@H]2c3cc4c(cc3[C@@H](O[C@@H]3O[C@@H]5CO[C@@H](C)O[C@H]5[C@H](O)[C@H]3O)[C@H]3COC(=O)[C@H]23)OCO4)cc(OC)c1O [etoposide] + N.N.[Cl][Pt][Cl] [cisplatin] (first compound 0.1 µM, partner dose 8 µM)	75.7	72.8	88.8	95.9	55.4	81.8	67	76.7	81.8	202	60.6	60.5	68.4	74.7	70.5	44.8	56.4	71.5	79.2	71
O=C(O)[C@@H]1[O][Sb](=[O])([O][Sb]2(=[O])[O][C@H]([C@H](O)CO)[C@H](O)[C@H](C(=O)O)[O]2)[O][C@H]([C@H](O)CO)[C@@H]1O (stereo not given in full) [stibogluconate] + C[As](C)SC[C@H](NC(=O)CC[C@H](N)C(=O)O)C(=O)NCC(=O)O [Darinaparsin] (first compound 10 µM, partner dose 2 µM)	105	89.2	101	96.9	79.9	102	103	74.7	119	106	129	109	69.8	76.2	101	101	82.6	73.8	145	72
Cn1c(=O)n(-c2ccc(C(C)(C)C#N)cc2)c2c3cc(-c4cnc5ccccc5c4)ccc3ncc21 + C[As](C)SC[C@H](NC(=O)CC[C@H](N)C(=O)O)C(=O)NCC(=O)O [Darinaparsin] (first compound 0.02 µM, partner dose 2 µM)	38	72.4	72.7	67.2	56.9	75.9	81.5	72.7	65.8	72.2	29.7	67.7	76.9	45.4	142	94.5	58.9	44.4	85.6	62.3
C/C(O)=C(\C#N)C(=O)Nc1cc(Br)ccc1Br + Cn1cc(/C=C2\C(=O)Nc3cccnc32)c2ccccc21 [GW441756] (first compound 10 µM, partner dose 2 µM)	82.3	85.6	102	111	104	98.5	81	85	97.4	123	82.9	93.6	108	71.9	86.1	81.8	72.9	93.1	80.9	76.9
CC1(C)CCC(c2ccc(Cl)cc2)=C(CN2CCN(c3ccc(C(=O)NS(=O)(=O)c4ccc(N[C@H](CCN5CCOCC5)CSc5ccccc5)c(S(=O)(=O)C(F)(F)F)c4)cc3)CC2)C1 + C[C@]12O[C@H](C[C@]1(O)CO)n1c3ccccc3c3c4c(c5c6ccccc6n2c5c31)CNC4=O [Lestaurtinib] (first compound 2 µM, partner dose 0.02 µM)	62.5	79.1	94.8	33.9	75.7	63.6	97.6	80.9	52.5	42.9	60.1	87.6	66.1	84.9	39.3	82.7	54.5	90.5	2.84	105
C/C(O)=C(\C#N)C(=O)Nc1cc(Br)ccc1Br + COc1cc(N2CCC(N3CCN(C)CC3)CC2)ccc1Nc1ncc(Cl)c(Nc2ccccc2S(=O)(=O)C(C)C)n1 [NVP-TAE684] (first compound 10 µM, partner dose 0.4 µM)	83.7	90.4	114	105	90.1	86.3	89.4	75.1	75.7	83.4	63.2	69.9	107	71	87.7	98.5	86.5	82.8	80.5	78.7
CC1(C)CCC(c2ccc(Cl)cc2)=C(CN2CCN(c3ccc(C(=O)NS(=O)(=O)c4ccc(N[C@H](CCN5CCOCC5)CSc5ccccc5)c(S(=O)(=O)C(F)(F)F)c4)cc3)CC2)C1 + C[As](C)SC[C@H](NC(=O)CC[C@H](N)C(=O)O)C(=O)NCC(=O)O [Darinaparsin] (first compound 2 µM, partner dose 2 µM)	59.5	80.2	56.7	59.6	9.14	57.4	82.2	60.1	38.6	36.6	67.4	72.4	66.3	64.8	53.6	50.3	52	43	4.27	84.2
C/C(O)=C(\C#N)C(=O)Nc1cc(Br)ccc1Br + O=C1NC(=O)/C(=C/c2ccc(-c3ccc(F)cc3O)o2)S1 [AS252424] (first compound 10 µM, partner dose 5 µM)	91.1	103	102	112	104	79.7	102	105	127	135	97	103	112	115	122	107	120	129	136	99.1
Cc1cc(SCc2sc(-c3ccc(C(F)(F)F)c(F)c3)nc2C)ccc1OCC(=O)O + COc1cc(N2CCC(N3CCN(C)CC3)CC2)ccc1Nc1ncc(Cl)c(Nc2ccccc2S(=O)(=O)C(C)C)n1 [NVP-TAE684] (first compound 10 µM, partner dose 0.4 µM)	98	97.7	102	113	81	90.8	87.6	71.8	90.8	85.6	110	75.3	96.9	71.5	83.2	113	86.7	67.2	75.6	78.5
Cn1cnc2c(F)c(Nc3ccc(Br)cc3Cl)c(C(=O)NOCCO)cc21 [selumetinib] + C[C@]12O[C@H](C[C@]1(O)CO)n1c3ccccc3c3c4c(c5c6ccccc6n2c5c31)CNC4=O [Lestaurtinib] (first compound 0.075 µM, partner dose 0.02 µM)	47.6	53.5	100	37.4	91.2	68.5	60	70.9	131	67	46.9	27.3	42.4	58.9	111	50.2	66	74.2	61.4	40.8
COc1cc(Nc2ncc(F)c(Nc3ccc4c(n3)NC(=O)C(C)(C)O4)n2)cc(OC)c1OC [Tamatinib] + C/C(O)=C(\C#N)C(=O)Nc1cc(Br)ccc1Br [LFM-A13] (first compound 2 µM, partner dose 10 µM)	76	69	60.8	56.1	20.4	62.7	60.2	81.9	16.8	86.4	52.5	79.5	90	56.7	90.3	73.4	75.5	86.3	21.6	85.7
O=C(Nc1ccccc1)c1cc([N+](=O)[O-])ccc1Cl + O=C(Oc1ccc([N+](=O)[O-])cc1)N1CCC(C(O)(c2ccc3c(c2)OCO3)c2ccc3c(c2)OCO3)CC1 [JZL184] (first compound 10 µM, partner dose 5 µM)	95.6	121	124	89.1	105	95.9	82.2	86.1	89.1	104	59.8	91.3	100	87.4	76.8	75.4	85.6	100	83.7	86.3
NC(=O)Nc1cc(-c2cccc(F)c2)sc1C(=O)N[C@H]1CCCNC1 + O=C(Oc1ccc([N+](=O)[O-])cc1)N1CCC(C(O)(c2ccc3c(c2)OCO3)c2ccc3c(c2)OCO3)CC1 [JZL184] (first compound 0.1 µM, partner dose 5 µM)	98.3	96.2	113	67.2	90.1	93.8	103	75.4	44	32.8	42.5	93.9	64.7	102	102	65.6	76.4	54	78.8	59.7
O=C(Nc1cc(C(F)(F)F)cc(C(F)(F)F)c1)c1cc(Cl)ccc1O + Cn1cc(C2=C(c3cn(C4CCN(Cc5ccccn5)CC4)c4ccccc34)C(=O)NC2=O)c2ccccc21 [Enzastaurin] (first compound 0.08 µM, partner dose 4 µM)	86.3	97.4	86.9	75.9	111	89.2	124	126	77.2	104	75.9	77.7	130	104	118	80.4	143	107	66.4	139
Cn1cncc1[C@@](N)(c1ccc(Cl)cc1)c1ccc2c(c1)c(-c1cccc(Cl)c1)cc(=O)n2C [tipifarnib] + O=C(Oc1ccc([N+](=O)[O-])cc1)N1CCC(C(O)(c2ccc3c(c2)OCO3)c2ccc3c(c2)OCO3)CC1 [JZL184] (first compound 0.05 µM, partner dose 5 µM)	99.6	91.1	96.5	87.5	54.5	102	100	111	71.4	100	74.4	81.3	86	66.5	98.9	64.6	66	77.9	95.3	87.3
CCc1ccc(CCOc2ccc(CC3SC(=O)NC3=O)cc2)nc1 (stereo not given) [pioglitazone] + O=C(Oc1ccc([N+](=O)[O-])cc1)N1CCC(C(O)(c2ccc3c(c2)OCO3)c2ccc3c(c2)OCO3)CC1 [JZL184] (first compound 10 µM, partner dose 5 µM)	117	106	102	142	93	108	129	99.3	92.7	111	80.6	107	93.2	84.6	82.8	95.3	84.3	83.6	80.6	81.8
O=C(Nc1cc(C(F)(F)F)cc(C(F)(F)F)c1)c1cc(Cl)ccc1O + C[As](C)SC[C@H](NC(=O)CC[C@H](N)C(=O)O)C(=O)NCC(=O)O [Darinaparsin] (first compound 0.08 µM, partner dose 2 µM)	82.5	85.4	117	71.4	116	90.1	92.5	85.1	113	93.6	80	116	89.2	63.4	83.8	80.5	87.2	72.3	95.9	68
